Results on 20 molecules are retold here after article PMC9911399, “Two distinct binding modes provide the RNA-binding protein RbFox with extraordinary sequence specificity”.

T1: RBFOX1 RRM (Homo sapiens, UniProt Q9NWB1 109-208)
T1 sequence: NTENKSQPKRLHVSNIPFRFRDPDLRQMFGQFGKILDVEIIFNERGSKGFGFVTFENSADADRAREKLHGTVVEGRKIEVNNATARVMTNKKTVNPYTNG

B1: AGAGCCC (DNA:RNA)
RNA: GGGAGACCGGAAUUCAGAUUGUCCAGAGCCCUUAAAUCCCGUCGUAGCCACCA
DNA 1: CAATCTGAATTCCGGTCTCCC
DNA 2: TGGTGGCTACGACGGGATT
B2: AGCCGAC (DNA:RNA)
RNA: B1 RNA with A27C, G28C, C29G, C30A
DNA 1: CAATCTGAATTCCGGTCTCCC
DNA 2: TGGTGGCTACGACGGGATT
B3: UAGUUUU (DNA:RNA)
RNA: GGGAGACCGGAAUUCAGAUUGUCCUAGUUUUUUAAAUCCCGUCGUAGCCACCA
DNA 1: CAATCTGAATTCCGGTCTCCC
DNA 2: TGGTGGCTACGACGGGATT
B4: CGAACGA (DNA:RNA)
RNA: B1 RNA with A25C, G28A, C30G, C31A
DNA 1: CAATCTGAATTCCGGTCTCCC
DNA 2: TGGTGGCTACGACGGGATT
B5: UACCACA (DNA:RNA)
RNA: B3 RNA with G27C, U28C, U29A, U30C, U31A
DNA 1: CAATCTGAATTCCGGTCTCCC
DNA 2: TGGTGGCTACGACGGGATT
B6: GCUUAAA (DNA:RNA)
RNA: B3 RNA with U25G, A26C, G27U, U29A, U30A, U31A
DNA 1: CAATCTGAATTCCGGTCTCCC
DNA 2: TGGTGGCTACGACGGGATT
B7: AAGGAGC (DNA:RNA)
RNA: B1 RNA with G26A, A27G, C29A, C30G
DNA 1: CAATCTGAATTCCGGTCTCCC
DNA 2: TGGTGGCTACGACGGGATT
B8: AGUCCCC (DNA:RNA)
RNA: B1 RNA with A27U, G28C
DNA 1: CAATCTGAATTCCGGTCTCCC
DNA 2: TGGTGGCTACGACGGGATT
B9: AUCGACC (DNA:RNA)
RNA: B1 RNA with G26U, A27C, C29A
DNA 1: CAATCTGAATTCCGGTCTCCC
DNA 2: TGGTGGCTACGACGGGATT
B10: ACUGGAU (DNA:RNA)
RNA: B1 RNA with G26C, A27U, C29G, C30A, C31U
DNA 1: CAATCTGAATTCCGGTCTCCC
DNA 2: TGGTGGCTACGACGGGATT
B11: UAUCUCG (DNA:RNA)
RNA: B3 RNA with G27U, U28C, U30C, U31G
DNA 1: CAATCTGAATTCCGGTCTCCC
DNA 2: TGGTGGCTACGACGGGATT
B12: GGGCUUC (DNA:RNA)
RNA: B3 RNA with U25G, A26G, U28C, U31C
DNA 1: CAATCTGAATTCCGGTCTCCC
DNA 2: TGGTGGCTACGACGGGATT
B13: AUAUAGC (DNA:RNA)
RNA: B1 RNA with G26U, G28U, C29A, C30G
DNA 1: CAATCTGAATTCCGGTCTCCC
DNA 2: TGGTGGCTACGACGGGATT
B14: AGGUAUU (DNA:RNA)
RNA: B3 RNA with U25A, A26G, U29A
DNA 1: CAATCTGAATTCCGGTCTCCC
DNA 2: TGGTGGCTACGACGGGATT
B15: AAGGGAC (DNA:RNA)
RNA: B1 RNA with G26A, A27G, C29G, C30A
DNA 1: CAATCTGAATTCCGGTCTCCC
DNA 2: TGGTGGCTACGACGGGATT
B16: ACGCCCU (DNA:RNA)
RNA: B1 RNA with G26C, A27G, G28C, C31U
DNA 1: CAATCTGAATTCCGGTCTCCC
DNA 2: TGGTGGCTACGACGGGATT
B17: UCACGGA (DNA:RNA)
RNA: B1 RNA with A25U, G26C, G28C, C29G, C30G, C31A
DNA 1: CAATCTGAATTCCGGTCTCCC
DNA 2: TGGTGGCTACGACGGGATT
B18: CCUCACA (DNA:RNA)
RNA: B1 RNA with A25C, G26C, A27U, G28C, C29A, C31A
DNA 1: CAATCTGAATTCCGGTCTCCC
DNA 2: TGGTGGCTACGACGGGATT
B19: GUUUCUA (DNA:RNA)
RNA: B3 RNA with U25G, A26U, G27U, U29C, U31A
DNA 1: CAATCTGAATTCCGGTCTCCC
DNA 2: TGGTGGCTACGACGGGATT
B20: AAUCCAA (DNA:RNA)
RNA: B1 RNA with G26A, A27U, G28C, C30A, C31A
DNA 1: CAATCTGAATTCCGGTCTCCC
DNA 2: TGGTGGCTACGACGGGATT

Changes are numbered by the printed parent chain; changes in the protein carry UniProt numbers. Some of the results follow.

The experiment addresses T1, RBFOX1 RRM. Description: EMSA; HiTS-Eq, 1 nM pool, 10 min; buffer printed only for the single-RNA assays: 10 mM Tris pH 7.5, 150 mM NaCl, 3.4 mM EDTA, 0.001% NP-40, 30 C. The following applies: tags: His6 N-terminal (pET28a); label: 5' 32P. In a few lines: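 Purified RbFox RRM, wild type or mutant, was incubated for 10 min in 50 µL with 1 nM of a 5′-radiolabelled RNA pool carrying 7 randomized nucleotides, whose flanks were annealed to DNA oligonucleotides, over a series of increasing protein concentrations. Unbound RNA was resolved on 8% native PAGE, cut out, reverse-transcribed, barcoded by PCR and sequenced on an Illumina HiSeq 2500. Relative association constants were derived from changes in read counts for each RNA species versus the control reaction and normalised to the cognate motif.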
(In general: A gel shift assay detects complexes by their altered migration in electrophoresis.)
As to B1, the binding signal is 0.0053 KA relative to UGCAUGU.

Regarding B2, the binding signal is 0.00754 KA relative to UGCAUGU.

As for B3, the binding signal is 0.0126 KA relative to UGCAUGU.

Consider B4, for which the binding signal is 0.011 KA relative to UGCAUGU.

With B5, the binding signal is 0.000943 KA relative to UGCAUGU.

For the molecule B6, the binding signal was 0.00504 KA relative to UGCAUGU.

For the molecule B7, the binding signal was 0.00637 KA relative to UGCAUGU.

Turning to B8, the binding signal is 0.0101 KA relative to UGCAUGU.

Consider B9, for which the binding signal is 0.00286 KA relative to UGCAUGU.

Turning to B10, the binding signal was 0.00627 KA relative to UGCAUGU.

B11: the binding signal is 0.00982 KA relative to UGCAUGU.

With B12, the binding signal was 0.0114 KA relative to UGCAUGU.

For B13, the binding signal is 0.0016 KA relative to UGCAUGU.

For the molecule B14, the binding signal is 0.0064 KA relative to UGCAUGU.

As for B15, the binding signal was 0.00883 KA relative to UGCAUGU.

With B16, the binding signal was 0.00244 KA relative to UGCAUGU.

As for B17, the binding signal was 0.00406 KA relative to UGCAUGU.

Consider B18, for which the binding signal was 0.0028 KA relative to UGCAUGU.

As to B19, the binding signal is 0.0101 KA relative to UGCAUGU.

Consider B20, for which the binding signal was 0.00298 KA relative to UGCAUGU.
